Results from PubChem BioAssay AID686978 (National Center for Advancing Translational Sciences (NCATS), 2013).
Hit rate of the full screen: of about 420,000 compounds, about 64,000 (15%) were called active. The inconclusive results got no clear call from the source; some entries with a clear call stand among them for comparison. Calls come from the whole dose curve; as a rule, active = well fitted inhibition curve with a large enough effect; inconclusive = small, poorly fitted or top-dose-only effect; inactive = flat fitted curve, though single readings scatter. Potencies of inconclusive entries are left out as doubtful fits.

Assay: qHTS for Inhibitors of human tyrosyl-DNA phosphodiesterase 1 (TDP1): qHTS in cells in absence of CPT; note: nearly all actives have a fitted effect of over 55% in size
Conditions: DT40 Tdp1-/- hTDP1 cells, no CPT, ATP luminescence, 48 h; activity change, negative = growth inhibition: at 46.2 µM (top of the series) unless noted
Procedure, shortened: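 DT40 Tdp1-/-;hTDP1 cells, no CPT (DMSO vehicle only), 400 cells/well; compounds pin-transferred; ≥48 hr, 37 °C; CellTiter-Glo 30 min RT dark, luminescence read.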
% is set by controls: 0 for no effect and ±100 for the full control effect; potency is the fitted concentration of half-maximal effect; tags give direction and shape of the fitted curve.

| Structure (SMILES) | Potency | activity change, negative = growth inhibition |
| --- | --- | --- |
| CCCc1c(C(=O)N/N=C/c2c[nH]c3ccccc23)nnn1-c1nonc1N | inconclusive [inhibitor, single point] | – |
| COc1ccc2c(C)nc(N/C(N)=N/S(=O)(=O)c3ccc(C)cc3)nc2c1 | inconclusive [inhibitor, single point] | – |
| C[C@H](CO)N1C[C@H](C)[C@H](CN(C)C(=O)Nc2ccc(F)cc2)Oc2ccc(NC(=O)NC3CCCCC3)cc2CC1=O | – | inactive: -28.9% |
| CSc1ccc(CNC(=O)CCn2c(=O)c3cccn3c3ccc(F)cc32)cc1 | inconclusive [inhibitor, single point] | – |
| O=C(CN1C(=O)COc2ccc(S(=O)(=O)N3CCCC3)cc21)NCc1ccccn1 | – | inactive: -6.13% |
| O=C(O)C1CCCCC1C(=O)NCc1ccncc1 (configuration not stated) | – | inactive: -17.4% |
| CCc1nnc(SCc2cccc(F)c2)nc1CC | – | inactive: -0.858% |
| COC(=O)c1cc2occc2n1Cc1cccc(C)c1 | inconclusive [inhibitor, partial curve] | – |
| COc1ccccc1CN1CCCCC1C(=O)O (configuration not stated) | inconclusive [inhibitor, partial curve, poor fit] | – |
| CCCn1c(SCC(=O)N2CCN(c3ccccc3)CC2)nc2ccccc2c1=O | inconclusive [inhibitor, single point] | – |
| O=C(Nc1nc(-c2ccccc2)cs1)c1cccc(S(=O)(=O)N2CCN(Cc3ccccc3)CC2)c1 | inconclusive [inhibitor, single point] | – |
| Cc1ccc(Oc2ccc(Cl)cc2NC(=O)c2cnccn2)cc1 | – | inactive: -11.1% |
| Cc1ccc(NC(=O)CSC(C)C(=O)OCC(=O)N2CCN(C(=O)c3ccco3)CC2)cc1 (configuration not stated) | – | inactive: 0.988% |
| CCN(CC)C(=O)Cn1cc(S(=O)(=O)Cc2cccc([N+](=O)[O-])c2)c2ccccc21 | inconclusive [inhibitor, single point] | – |
| CCn1nc(C)cc1C(=O)NC1CCCc2c1cnn2-c1ccc(C)c(C)c1 (configuration not stated) | inconclusive [inhibitor, single point] | – |
| CC1CCc2c(C(=O)OCC(=O)Nc3cccc(S(=O)(=O)N4CCCCCC4)c3)csc2C1 (configuration not stated) | inconclusive [inhibitor, partial curve] | – |
| Cc1ccc(S(=O)(=O)N2CCN(CCOc3c(Cl)cccc3Cl)CC2)cc1C | inconclusive [inhibitor, single point] | – |
| N[C@@H](Cc1ccccc1)C(=O)N1CCC(C(=O)NCC(=O)NCC(=O)O)CC1 | – | inactive: 2.1% |
| CC1CCC(NC(=O)CSc2nncs2)CC1 (configuration not stated) | – | inactive: -7.06% |
| COc1ccc(C(=O)Nc2ccc(-c3nc4ccccc4s3)cc2C)cc1Cl | – | inactive: -29.1% |
| CC(C)(C)OC(=O)N1CCN(c2ccc(NC(=O)c3ccco3)cc2)CC1 | active: 16.4 µM | – |
| CCOC(=O)C1CCN(C(=O)CN2C(=O)NC(C)(c3ccc4cc(OC)ccc4c3)C2=O)CC1 (configuration not stated) | active: 10.3 µM | – |
| O=C(c1cccc(S(=O)(=O)N2CCCC2)c1)N1CCN(c2ccccc2)CC1 | inconclusive [inhibitor, single point] | – |
| Cc1ccc(CN2C(=O)C(C)Nc3ncnc(N4CCN(c5ccccn5)CC4)c32)cc1 (configuration not stated) | active: 18.4 µM | – |
| Cn1c(N)c(Sc2ccc([N+](=O)[O-])cc2)c(=O)n(C)c1=O | – | inactive: -1.96% |
| CCc1nc(-c2ccccc2O)n(-c2ccccc2)n1 | inconclusive [inhibitor, single point] | – |

| Structure (SMILES) | Potency | activity change, negative = growth inhibition |
| --- | --- | --- |
| CCOC(=O)Nc1ccc(S(=O)(=O)NCc2ccccc2)cc1 | inconclusive [inhibitor, partial curve] | – |
| C/C(=N/NC(=O)c1ccco1)c1cccnc1 | – | inactive: -21.9% |
| Cc1cccc(OCCOC(=O)c2c(-c3ccccc3)noc2C)c1 | active: 23.1 µM | – |
| C[C@@H]1Cc2[nH][nH]c(=O)c2[C@H](c2ccc(Cl)cc2)O1 | – | inactive: -17.2% |
| CC(C)(C)c1cc(C(C)(C)C)cc(S(=O)(=O)CCc2ccccn2)c1 | inconclusive [inhibitor, single point] | – |
| COc1cccc(CNC(=O)CCCn2c(=S)[nH]c3cc4c(cc3c2=O)OCO4)c1 | inconclusive [inhibitor, full curve, poor fit] | – |
| O=C(CN1CCc2ccccc2C1)Nc1cccc(S(=O)(=O)N2CCCC2)c1 | inconclusive [inhibitor, single point] | – |
| COc1cc(NC(=S)NC(=O)CC(C)C)ccc1NC(=O)c1cc2ccccc2o1 | inconclusive [inhibitor, partial curve, poor fit] | – |
| Cc1ccc(S(=O)(=O)Nc2c(C(=O)O)[nH]c3ccccc23)cc1C | – | inactive: 22.7% |
| CC(C)Cc1nc(C#N)c(N2CCC(C(N)=O)CC2)o1 | – | inactive: -1.26% |
| O=c1c(-c2cc(F)cc(F)c2)nc2cnc(N3CCNCC3)nc2n1Cc1ccc(F)cc1 | inconclusive [inhibitor, single point] | – |
| Clc1ccc(CN2CCN(c3ncccn3)CC2)cc1Cl | inconclusive [inhibitor, single point] | – |
| COc1ccc(N2CCN(C(=O)CCC(=O)N3CC(C)Oc4ccccc43)CC2)cc1 (configuration not stated) | inconclusive [inhibitor, single point] | – |
| Cn1cc(C(=O)NCc2ccccc2F)cn1 | – | inactive: -12.8% |
| CCOc1ccccc1NC(=O)c1oc2ccccc2c1NC(=O)C1CCCO1 (configuration not stated) | active: 9.2 µM | – |
| COc1ccc(-n2c(=O)c3ccccc3n(Cc3ccccc3C)c2=O)c(OC)c1 | inconclusive [inhibitor, single point] | – |
| O=C(O)/C=C/c1ccc(S(=O)(=O)Nc2ccc(OCc3ccccc3)cc2)cc1 | inconclusive [inhibitor, single point] | – |
| CC(=O)Nc1nonc1-c1nnc(SCC(=O)Nc2ccc(C)c(Cl)c2)n1-c1ccccc1 | active: 16.4 µM | – |
| CC(OC(=O)c1ccc2ccccc2c1)C(=O)N(C)Cc1ccccc1 (configuration not stated) | active: 20.6 µM | – |
| Cc1ccc2nc(NC(=O)C3CCN(c4ncnc5sc(C)c(C)c45)CC3)sc2c1 | inconclusive [inhibitor, single point] | – |
| O=C(COC(=O)c1n[nH]c2ccccc12)Nc1ccc(S(=O)(=O)N2CCCC2)cc1 | active: 20.6 µM | – |
| CCOc1ccc(S(=O)(=O)NN)cc1 | – | inactive: -11.3% |
| O=C(/C=C/c1ccc2c(c1)OCO2)c1ccc[nH]1 | inconclusive [inhibitor, single point] | – |
| CCc1ccccc1Nc1nc2cc(Cl)c(Cl)cc2nc1-n1nc(C)cc1C | – | inactive: 6.28% |
| CCN(CC)c1ccc(/C=C(/C#N)C(=O)NC(C)C)o1 | – | inactive: -7% |
| O=NN(C(=O)NC1CCC(C(=O)O)CC1)C1CCC(C(=O)O)CC1 (configuration not stated) | – | inactive: -7.93% |

| Structure (SMILES) | Potency | activity change, negative = growth inhibition |
| --- | --- | --- |
| Cc1ccc(SCCC(=O)Nc2ccccc2C(=O)N2CCOCC2)cc1 | – | inactive: -12.7% |
| Cc1cccc([N+](=O)[O-])c1NC(=O)CN(Cc1ccccc1)Cc1ccccc1 | active: 20.6 µM | – |
| CCOc1ccc(S(=O)(=O)NCCCN2CCOCC2)c2ccccc12 | – | inactive: -19.5% |
| O=C(CN1CCSCC1)N/N=C/c1cccc(Cl)c1 | – | inactive: -15.2% |
| CCN(CC)S(=O)(=O)c1ccc2c(c1)nc(SCC(N)=O)n2-c1ccc(OC)cc1 | inconclusive [inhibitor, partial curve] | – |
| COc1cccc(C(=O)NCCCn2ccnc2)c1 | – | inactive: 5.25% |
| Cc1nn(C)c(C)c1NS(=O)(=O)c1ccc(OC(F)(F)F)cc1 | inconclusive [inhibitor, partial curve] | – |
| CCOc1ccc(NS(=O)(=O)c2ccc3[nH]c(=O)cc(C(=O)O)c3c2)cc1 | – | inconclusive: -18.7% [inhibitor] |
| CN(C)c1ccc(CNC(=O)CCS(=O)(=O)c2ccc3c(c2)n(C)c(=O)c(=O)n3C)cc1 | – | inactive: -2.5% |
| C/C(=N\Nc1cc(C)nc(NCc2ccccc2)n1)c1ccc([N+](=O)[O-])cc1 | active: 9.2 µM | – |
| Cc1ccc(S(=O)(=O)N2CC(C(=O)O)=CC[C@H]2c2ccc3c(c2)OCO3)cc1 | – | inactive: -7.14% |
| CCOc1cc(C(=O)Nc2ccccc2N2CCOCC2)ccc1OCC(=O)N1CCOCC1 | inconclusive [inhibitor, single point] | – |
| N#Cc1c(-c2ccccc2)cc(-c2ccccc2)nc1Br | inconclusive [inhibitor, single point] | – |
| CCOC(=O)C(=CNc1cc(C(F)(F)F)ccc1N1CCOCC1)C(=O)OCC | active: 16.4 µM | – |
| NC(=O)Nc1cccc2ccccc12 | – | inactive: 1.51% |
| Cc1ccc(-n2nc(CO)c(C(=O)NCCCc3ccccc3)n2)cc1 | active: 23.1 µM | – |
| COc1cccc2sc(=NC(=O)CS(=O)(=O)c3ccccc3)n(C)c12 | active: 14.6 µM | – |
| c1nc2nc3c(c(N4CCOCC4)n2n1)CCCC3 | – | inactive: -3.99% |
| COP(=O)(OC)C(=NNS(=O)(=O)c1ccc(C)cc1)c1ccccc1 | – | inactive: -11.4% |
| CCN1CCCc2cc(CN(CCN3CCOCC3)C(=S)Nc3cccc(Cl)c3)ccc21 | active: 13 µM | – |
| CCC(=O)Nc1nonc1-c1nc2ccccc2n1Cc1ccccc1 | inconclusive [inhibitor, partial curve] | – |
| Cc1nn(-c2ccccc2)c(C)c1C(=O)OCC(=O)NC(=O)NC1CCCC1 | inconclusive [inhibitor, single point] | – |
| Cc1occc1C(=O)N/N=C/C=C\c1ccccc1[N+](=O)[O-] | – | inactive: -28.3% |
| CN(/C(=N/S(=O)(=O)c1cccs1)c1ccccc1)c1ccccc1 | inconclusive [inhibitor, partial curve] | – |
| COc1cccc(NC(=S)N2C3CCCC2CC(NC(=O)C2CC2)C3)c1 (configuration not stated) | – | inactive: -8.13% |
